# Source: PubChem BioAssay AID588342 (National Center for Advancing Translational Sciences (NCATS), 2011)
# The campaign covered roughly 360,000 compounds. About 25,000 (6.9%) were called active. Inconclusive results, whose numbers are uncertain, are shown with a selection of clear calls. The call rests on the fitted dose curve; in most records, active means well fitted inhibition curve with a large enough effect; inconclusive means small, poorly fitted or top-dose-only effect; inactive means flat fitted curve, though single readings scatter. Potencies beside an inconclusive call are fits to weak or partial responses and may not hold up.
# Target: Luciferin 4-monooxygenase (Photinus pyralis) (UniProt P08659)
# UniProt P08659, sequence (P08659 whole entry, looked up): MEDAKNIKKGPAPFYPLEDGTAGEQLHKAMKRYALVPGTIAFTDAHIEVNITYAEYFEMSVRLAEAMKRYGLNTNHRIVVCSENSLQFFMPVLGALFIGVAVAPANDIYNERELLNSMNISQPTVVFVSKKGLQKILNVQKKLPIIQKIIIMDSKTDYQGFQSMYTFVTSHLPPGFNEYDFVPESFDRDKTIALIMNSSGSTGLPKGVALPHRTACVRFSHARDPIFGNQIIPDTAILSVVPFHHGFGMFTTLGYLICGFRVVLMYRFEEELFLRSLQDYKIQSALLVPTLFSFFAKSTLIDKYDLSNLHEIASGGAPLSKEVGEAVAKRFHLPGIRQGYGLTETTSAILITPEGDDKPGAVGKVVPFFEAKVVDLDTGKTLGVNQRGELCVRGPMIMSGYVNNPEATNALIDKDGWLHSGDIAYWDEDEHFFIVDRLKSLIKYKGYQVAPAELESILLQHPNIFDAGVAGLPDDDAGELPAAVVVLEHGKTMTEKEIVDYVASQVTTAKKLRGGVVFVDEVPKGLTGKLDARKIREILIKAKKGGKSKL
# Test: qHTS profiling assay for firefly luciferase inhibitor/activator using purifed enzyme and Km concentrations of substrates (counterscreen for miR-21 project); further: nearly all actives have a fitted effect of over 55% in size
# Conditions: purified FLuc, luminescence inhibition; series mostly up to 57.5 µM
# In short: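 Purified P. pyralis luciferase, 10 nM final, with Km-level 10 uM D-luciferin and 10 uM ATP in 50 mM Tris acetate pH 7.5, 10 mM Mg acetate, 0.01% Tween-20, 0.05% BSA; 6-point qHTS titration about 60 µM downward; luminescence read.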
# Potency means the concentration at half of the fitted maximal effect; tags describe the fitted curve by direction and shape.
row,Compound,Potency
1,Cc1ccc(SCc2nc3ccccc3n2CC(=O)Nc2ccc(Cl)cc2)cc1,"inconclusive: 12 µM [inhibitor, partial curve, poor fit]"
2,O=C(CN1CCCc2ccccc21)N/N=C/c1c(O)ccc2ccccc12,"inconclusive: 23.9 µM [inhibitor, single point]"
3,O=C(OCCN=C1NS(=O)(=O)c2ccccc21)c1ccco1,inactive
4,COCCNC(=O)C(c1ccc(Cl)cc1)N(CCOC)C(=O)CCC(=O)Nc1nccs1 (centres undefined),inactive
5,CCOc1ccc(OCCn2c(=S)[nH]c3c(N)ncnc32)cc1,"inconclusive: 37.9 µM [inhibitor, partial curve, poor fit]"
6,Fc1cccc(CNc2ncnc3ccc(-c4ccccc4Cl)cc23)c1,"inconclusive: 4.78 µM [inhibitor, partial curve, poor fit]"
7,O=C(CSCc1ccc(F)cc1)N1CCOCC1,"inconclusive: 37.9 µM [inhibitor, single point]"
8,O=C(OCc1ccccn1)c1ccc(COc2ccccc2Cl)o1,"inconclusive: 19 µM [inhibitor, partial curve]"
9,Clc1ccc(-c2csc(N3CCCCCC3)n2)cc1,active: 10.7 µM
10,CCc1ccccc1N(CC)C(=O)c1cc2c(s1)-c1ccccc1OC2,inactive
11,COc1ccc2c(CC(=O)OCC(=O)Nc3cccc(S(N)(=O)=O)c3)coc2c1,"inconclusive: 19 µM [inhibitor, single point]"
12,CCc1ccc(-n2nc(CO)c(C(=O)NCc3ccccn3)n2)cc1,"inconclusive: 15.1 µM [inhibitor, partial curve]"
13,O=C(COC(=O)CNC(=O)c1ccccc1)Nc1nnc(-c2ccccc2)o1,"inconclusive: 37.9 µM [inhibitor, partial curve, poor fit]"
14,O=C(O)CC1S/C(=N/N=C/c2ccc(Br)cc2)N(c2ccccc2)C1=O (centres undefined),"inconclusive: 30.1 µM [inhibitor, partial curve, poor fit]"
15,Cc1cc(NC(=O)CSc2cn(CCNC(=O)c3ccc(Cl)cc3)c3ccccc23)no1,"inconclusive: 3.38 µM [inhibitor, partial curve, poor fit]"
16,Cc1ccccc1C(=O)N/N=C/c1ccc([N+](=O)[O-])s1,"inconclusive: 21.3 µM [inhibitor, single point]"
17,O=C(C1CCCN(S(=O)(=O)c2cc(Cl)ccc2Cl)C1)N1CCOCC1 (centres undefined),inactive
18,Cc1ccc(NC(=O)C2=CC=CN3CCS(=O)(=O)N=C23)cc1,"inconclusive: 23.9 µM [inhibitor, partial curve, poor fit]"
19,CCC(=O)Nc1ccc2nc(C3CC3)n(Cc3ccccc3)c(=O)c2c1,"inconclusive: 5.36 µM [inhibitor, partial curve, poor fit]"
20,Cc1ccc(NC(=O)Cc2ccc(Cl)cc2)cc1S(=O)(=O)N1CCCCCC1,inactive
21,Cc1ccn2cc(CSc3ccccc3)nc2c1,active: 4.78 µM
22,Cc1noc(/C=C/c2cccnc2)c1[N+](=O)[O-],inactive

row,Compound,Potency
1,CC(=O)NNC(=O)CC(=O)Nc1nc(C23CC4CC(CC(C4)C2)C3)cs1,"inconclusive: 37.9 µM [inhibitor, partial curve, poor fit]"
2,COc1cccc(NC(=O)c2oc3ccccc3c2NC(=O)C(C)(C)C)c1,inactive
3,COc1ccc(CNC(=O)C2CC(c3ccccc3[N+](=O)[O-])=NO2)cc1 (centres undefined),"inconclusive: 30.1 µM [inhibitor, partial curve, poor fit]"
4,CC(=O)Oc1ccc(Oc2ccc(-c3noc(C)n3)cc2)cc1,"inconclusive: 23.9 µM [inhibitor, single point]"
5,CC(NC(=O)Nc1ccccc1Cl)c1ccc2c(c1)OCO2 (centres undefined),inactive
6,CCN(CCCNC(=O)c1cc2cc3cc(C)ccc3nc2s1)c1cccc(C)c1,"inconclusive: 8.49 µM [inhibitor, partial curve, poor fit]"
7,COC(=O)C1CCN(C(=O)c2ccc3nc(-c4cccc(OC)c4)oc3c2)CC1,active: 21.3 µM
8,CCOC(=O)c1c(NC(=O)/C=C/C(=O)O)sc(C)c1-c1ccc(F)cc1,"inconclusive: 23.9 µM [inhibitor, partial curve, poor fit]"
9,CCS(=O)(=O)c1ccc(O)c(NC(=O)Nc2ccccc2OC)c1,"inconclusive: 30.1 µM [inhibitor, partial curve, poor fit]"
10,Cc1cc(C(=O)Nc2nc(C)c(C(=O)N(C)C)s2)ccc1[N+](=O)[O-],active: 4.26 µM
11,Cc1ccc(C)c(NC(=O)C(=O)NCCc2csc(-c3ccc(C(F)(F)F)cc3)n2)c1,inactive
12,Cc1ccc(/C=C2\SC(=O)N(CCC(=O)N3CCN(C)CC3)C2=O)cc1,active: 13.5 µM
13,NC(=O)COC(=O)CSc1ccc2ccccc2c1,"inconclusive: 23.9 µM [inhibitor, single point]"
14,CCOc1ccc2nc(NC(=O)NC3CCCCC3)sc2c1,"inconclusive: 4.26 µM [inhibitor, partial curve, poor fit]"
15,CC(=O)Oc1ccc(Cl)cc1/C=C/c1ccc2ccccc2n1,active: 5.36 µM
16,Cc1nc(SCC(=O)O)c2oc3ccccc3c2n1,"inconclusive: 21.3 µM [inhibitor, partial curve, poor fit]"
17,Cc1nnc(-c2ccc(Cl)cc2)[nH]c1=O,"inconclusive: 37.9 µM [inhibitor, partial curve, poor fit]"
18,CC(C)(C)C(=O)Nc1ccc2nc(SCC(=O)N3CCCC3)sc2c1,"inconclusive: 37.9 µM [inhibitor, partial curve, poor fit]"
19,O=C(Nc1ccc(NC(=O)c2cccs2)cc1)c1ccc(Br)cc1,inactive
20,CCN(CC)S(=O)(=O)c1ccc(N2CCCCC2)c(NC(=O)C2CCN(C(=O)c3ccc(F)cc3)CC2)c1,inactive
21,CC1CCN(C(=O)CCCOc2ccc(Cl)cc2)CC1,"inconclusive: 37.9 µM [inhibitor, single point]"
22,O=C(CN1C(=O)S/C(=C\c2ccc(O)c([N+](=O)[O-])c2)C1=O)Nc1ccc(N2CCOCC2)cc1,"inconclusive: 16.9 µM [inhibitor, partial curve]"
